Source: the RNAGym collection of RNA variant scans (doi:10.1073/pnas.2313332121)
This sample is rich in variants without activity.

B1: TPR 5TU (parent)
chain: GGAUCUUCUCGAUCUAACAAAAAAGACAAAUCUGCCACAAAGCUUGAGAGCAUCUUCGGAUGCAGAGGCGGCAGCCUUCGGUGGCGCGAUAGCGCCAACGUUCUCAACUAUGACACGCAAAACGCGUGCUCCGUUGAAUGGAGUUUAUCAUG

Variants of: B1
Experiment: polymerase ribozyme fitness, log enrichment relative to wild type (log ratio); higher = more active; in vitro selection for triplet polymerase activity
Method in brief: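 For each subunit of a heterodimeric triplet polymerase ribozyme, a mutant library was built by PCR and transcribed, then taken through a single in vitro selection round in triplicate. Selection involved annealing to a biotinylated primer, the partner subunit and triplets, incubation frozen at −7 °C, gel excision of extended constructs, capture on streptavidin beads and RT-PCR. Genotypes were retained after Illumina sequencing of inputs and outputs only with ≥10 input reads and ≥1 read in each output. Fitness is defined as the logarithm of a genotype's enrichment relative to wild-type enrichment, using inverse-variance-weighted averages across replicates, with the logarithm taken to base 2.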

Variant	polymerase ribozyme fitness (log ratio)
C10U C14G G34U U56G	≤ -4.2
C10U C14G U77A G84C C108U U111C C118A	≤ -4.2
C10U C18A C35A U53G C93G	≤ -4.2
C10U C27U U55A G59C G84A	≤ -4.2
C10U C32A G50U G94U A106U A119C G152A	≤ -4.2
C10U C32U G68U G74A U78A G92A C125A G140U U145G	≤ -4.2
C10U C35A G42C G59C A66G A120G A122U G136A	≤ -4.2
C10U C36A U45C C85U A119G U145G	≤ -4.2
C10U C36U C54U G80U A91C U109A A110U U127A U148G	≤ -4.2
C10U C36U C63A C118U	≤ -4.2
C10U C38U A52U U53A U55G G59U G84A G143C	≤ -4.2
C10U C51G A52U C87A C123U G141C	≤ -4.2
C10U C51U C54U G94U C116G U130A U145A	≤ -4.2
C10U C57A G74U G88U A115G A119U U145G C149G	≤ -4.2
C10U C57U C95G C96A G126C G140C	≤ -4.2
C10U C57U C96U	-3.83
C10U C69U A147C U148G C149G	≤ -4.2
C10U C75U G84A U145A	-4.08
C10U C116U A147C	-3.39
C10U G11A A19U U55A C75G G83U	≤ -4.2
C10U G11C A17C A26U G81A G92A U111G A137G U148G	≤ -4.2

Variant	polymerase ribozyme fitness (log ratio)
C10U G11U A12G A52G C93A U109A	≤ -4.2
C10U G34A G59C G92A G133C	≤ -4.2
C10U G42C C69A C95G A142G A150G	≤ -4.2
C10U G48A G88A C96A A142U	≤ -4.2
C10U G48C C54A C79G	≤ -4.2
C10U G58A G92U A97C A107G U134G U135G	≤ -4.2
C10U G58U G83A A89C A110G U148A	≤ -4.2
C10U G59A C93U A137G	≤ -4.2
C10U U13A C69A G83C U109C G143C U145G	≤ -4.2
C10U U31A G46C A60G G83U A91U U139C	≤ -4.2
C10U U44A G88C A89G A115C G140U A142G	≤ -4.2
C10U U45C C63U U77C C87G A89U	≤ -4.2
C10U U53A G67U C96G G100C A106G G126C U151G	≤ -4.2
C10U U53C U55A G86A G88C	≤ -4.2
C10U U55G U90A C103G G143C	≤ -4.2
C10U U56A C93U A122U C149U G152U	≤ -4.2
C10U U78G	≤ -4.2
G11A A19U A28U A60C G84A C103G	≤ -4.2
G11A A19U U61A G84C C85A C103G	≤ -4.2
G11A A21G A23C C54U G70C C76A G83U	≤ -4.2
G11A A21U C51U U53A U55G C57U C96A A110C	≤ -4.2

Variant	polymerase ribozyme fitness (log ratio)
G11A A21U C85U	-1.32
G11A A23U A29U A41C G50A U101A U102A A121G U135G	≤ -4.2
G11A A23U A37G A73U G128A U148A	≤ -4.2
G11A A24C U53A C93U U148A	≤ -4.2
G11A A24G U53A C69U U77G C87U A97U	≤ -4.2
G11A A24U A66G U101G A107G A120G U139A	≤ -4.2
G11A A26C U90G	≤ -4.2
G11A A26U U82C C87U	≤ -4.2
G11A A28U C57A	≤ -4.2
G11A A37G C54U A66C G67C A73G G94U A113U C118G U135G G141A	≤ -4.2
G11A A41U A52U U55A C118U	≤ -4.2
G11A A41U G46A G68A U78C	≤ -4.2
G11A A60G A106G	-0.626
G11A A91G	-3.81
G11A C14U G84C	≤ -4.2
G11A C18G A24U G59A A73U G84A A89C C99G G124U C131G	≤ -4.2
G11A C27A A37C G59C G83A G86A G92A U102G G117U	≤ -4.2
G11A C35A G58A G68C G86A G92U A107U A137G	≤ -4.2
G11A C43A U82G G88C U145G	≤ -4.2
G11A C51U U55A U56G A142C	-3.56
G11A C54U G83A A147U	-0.578

Variant	polymerase ribozyme fitness (log ratio)
G11A C57A	-1.44
G11A C93G	≤ -4.2
G11A G25A A37C C43A A52C C54U G80C G92U A97U C123A	≤ -4.2
G11A G25C G50A A52G C75G U90G C103U U144A	≤ -4.2
G11A G25U A39C C87U C105G G133C	≤ -4.2
G11A G50C U56A G58C A98U	≤ -4.2
G11A G67A C79G A120G	≤ -4.2
G11A G81A C93G C116U C129G	≤ -4.2
G11A G88A G141U	≤ -4.2
G11A G141U	0.246
G11A U13G A29U C85U C103U A138U	≤ -4.2
G11A U15G A107G G141C U144C U145A G152A	≤ -4.2
G11A U31A	-0.715
G11A U31A A39U C93G C95U C99U A107G A113U C132U U135C A138G	≤ -4.2
G11A U33C A47U C99U C125U G143U	≤ -4.2
G11A U55A U101G	-1.01
G11C A17C A28U C85G C99A C103G C131G A147C	≤ -4.2
G11C A17C C27A C32G U61A G84U C85U U109A G117A A121U G133U	≤ -4.2
G11C A17U C79G G86U U101G C125U G152A	≤ -4.2
G11C A17U G50C A89C G94U U148G	≤ -4.2
G11C A19U G92A	≤ -4.2
